The results in this text go back to article PMC10050012.

Protein sequences, listed by entry. Tags and fused reporters are not part of them. Residues count along the entry.
UniProt P60484: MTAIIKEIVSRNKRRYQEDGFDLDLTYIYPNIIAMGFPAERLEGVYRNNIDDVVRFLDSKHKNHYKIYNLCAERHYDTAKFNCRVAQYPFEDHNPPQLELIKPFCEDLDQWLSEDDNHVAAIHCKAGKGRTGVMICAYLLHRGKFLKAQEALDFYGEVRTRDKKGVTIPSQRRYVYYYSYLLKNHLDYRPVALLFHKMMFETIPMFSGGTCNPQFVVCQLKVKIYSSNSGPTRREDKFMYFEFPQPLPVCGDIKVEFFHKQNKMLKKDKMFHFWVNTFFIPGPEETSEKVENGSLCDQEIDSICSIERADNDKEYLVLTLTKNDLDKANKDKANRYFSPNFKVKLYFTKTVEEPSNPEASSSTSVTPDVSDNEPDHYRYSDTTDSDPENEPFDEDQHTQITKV
UniProt P05107, residues 23-769: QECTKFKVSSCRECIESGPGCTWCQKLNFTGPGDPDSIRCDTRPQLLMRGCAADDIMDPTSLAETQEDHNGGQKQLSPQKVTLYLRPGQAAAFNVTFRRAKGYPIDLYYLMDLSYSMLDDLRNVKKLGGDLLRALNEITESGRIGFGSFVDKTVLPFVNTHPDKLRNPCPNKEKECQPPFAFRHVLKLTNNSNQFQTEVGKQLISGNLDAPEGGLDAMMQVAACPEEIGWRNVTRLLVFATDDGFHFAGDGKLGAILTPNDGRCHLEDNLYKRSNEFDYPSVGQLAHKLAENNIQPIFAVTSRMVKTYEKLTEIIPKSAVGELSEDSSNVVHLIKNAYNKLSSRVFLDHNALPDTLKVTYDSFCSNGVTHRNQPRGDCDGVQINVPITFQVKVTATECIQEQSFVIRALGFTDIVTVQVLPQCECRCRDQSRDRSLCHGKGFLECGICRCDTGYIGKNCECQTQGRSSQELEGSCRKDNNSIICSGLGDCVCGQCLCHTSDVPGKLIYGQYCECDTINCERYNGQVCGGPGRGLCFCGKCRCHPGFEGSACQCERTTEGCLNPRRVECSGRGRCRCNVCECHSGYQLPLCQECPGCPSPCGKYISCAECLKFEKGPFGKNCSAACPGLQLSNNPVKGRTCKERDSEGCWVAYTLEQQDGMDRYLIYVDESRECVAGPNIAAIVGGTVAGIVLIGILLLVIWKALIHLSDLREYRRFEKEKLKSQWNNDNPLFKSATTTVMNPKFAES

Results are given in words; binding and its absence hold for the method and conditions named. For some assays here: In cells and extracts the contact can be indirect. Some entries that bind do so weakly or less than the wild type.

In experiment [1] the target is PTEN (human (endogenous in NB4)) (UniProt P60484). Put plainly: condition: only cells treated with ATRA + NC9 (30 μM) for 5 days; co-IP; as a1, NB4 WT cells treated with ATRA + NC9 (30 μM, TG2 inhibitor) for 5 days.
Experiment [2] shares this target. In words: condition: only cells treated with ATRA + PP2 (20 μM) for 5 days; co-IP; as a1, NB4 WT cells treated with ATRA + PP2 (20 μM, c-SRC inhibitor) for 5 days.
Experiment [3] concerns the target CD18 β2-integrin subunit (human (endogenous in NB4)) (UniProt P05107). In words: co-IP; immunoprecipitation from the plasma membrane fraction (and total cell lysate) of ATRA-treated NB4 WT cells with a polyclonal TG2 antibody and, reciprocally, with antibodies to mTOR, AKT, CD18, p85, PI3K/p110, PTEN and c-SRC; Western blot. On the technique in general: In western blotting, separated proteins are transferred to a membrane and probed.

Experiment [4] has as its target PTEN (human (endogenous in NB4)) (UniProt P60484). Described as above.
The target is the same in experiment [5]. Put plainly: far-Western, overlay or dot blot; modified far-western blot with disuccinimidyl suberate (DSS): bait proteins immunoprecipitated from plasma membrane, renatured and incubated with plasma membrane lysates; bound prey detected by a primary antibody; NB4 WT cells with ATRA for 5 days, also for 2 days, and NB4 WT CD18-/- cells; only the target purified.

B1: transglutaminase 2 (protein, UniProt P21980 1-687)
chain: MAEELVLERCDLELETNGRDHHTADLCREKLVVRRGQPFWLTLHFEGRNYEASVDSLTFSVVTGPAPSQEAGTKARFPLRDAVEEGDWTATVVDQQDCTLSLQLTTPANAPIGLYRLSLEASTGYQGSSFVLGHFILLFNAWCPADAVYLDSEEERQEYVLTQQGFIYQGSAKFIKNIPWNFGQFEDGILDICLILLDVNPKFLKNAGRDCSRRSSPVYVGRVVSGMVNCNDDQGVLLGRWDNNYGDGVSPMSWIGSVDILRRWKNHGCQRVKYGQCWVFAAVACTVLRCLGIPTRVVTNYNSAHDQNSNLLIEYFRNEFGEIQGDKSEMIWNFHCWVESWMTRPDLQPGYEGWQALDPTPQEKSEGTYCCGPVPVRAIKEGDLSTKYDAPFVFAEVNADVVDWIQQDDGSVHKSINRSLIVGLKISTKSVGRDEREDITHTYKYPEGSSEEREAFTRANHLNKLAEKEETGMAMRIRVGQSMNMGSDFDVFAHITNNTAEEYVCRLLLCARTVSYNGILGPECGTKYLLNLNLEPFSEKSVPLCILYEKYRDCLTESNLIKVRALLVEPVINSYLLAERDLYLENPEIKIRILGEPKQKRKLVAEVSLQNPLPVALEGCTFTVEGAGLTEEQKTVEIPDPVEAGEEVKVRMDLLPLHMGLHKLVVNFESDKLKAVKGFRNVIIGPA
On to B1, for which the binding result in experiment [1] was “no binding”; in experiment [2], “no binding”; in experiment [3], “binds”; in experiment [4], “binds”; in experiment [5] it was “binds”.
